The campaign covered roughly 310,000 compounds. About 2,200 (0.71%) showed an effect of 50% or more. The effect is printed as a negative number. Some of the results follow.
Biological target: human ether-à-go-go-related gene (hERG) potassium channel (human, UniProt Q12809)
Assay: primary screen, population patch clamp on CHO cells stably expressing hERG

human ether-à-go-go-related gene (hERG) potassium channel, sequence (Q12809 whole entry, looked up): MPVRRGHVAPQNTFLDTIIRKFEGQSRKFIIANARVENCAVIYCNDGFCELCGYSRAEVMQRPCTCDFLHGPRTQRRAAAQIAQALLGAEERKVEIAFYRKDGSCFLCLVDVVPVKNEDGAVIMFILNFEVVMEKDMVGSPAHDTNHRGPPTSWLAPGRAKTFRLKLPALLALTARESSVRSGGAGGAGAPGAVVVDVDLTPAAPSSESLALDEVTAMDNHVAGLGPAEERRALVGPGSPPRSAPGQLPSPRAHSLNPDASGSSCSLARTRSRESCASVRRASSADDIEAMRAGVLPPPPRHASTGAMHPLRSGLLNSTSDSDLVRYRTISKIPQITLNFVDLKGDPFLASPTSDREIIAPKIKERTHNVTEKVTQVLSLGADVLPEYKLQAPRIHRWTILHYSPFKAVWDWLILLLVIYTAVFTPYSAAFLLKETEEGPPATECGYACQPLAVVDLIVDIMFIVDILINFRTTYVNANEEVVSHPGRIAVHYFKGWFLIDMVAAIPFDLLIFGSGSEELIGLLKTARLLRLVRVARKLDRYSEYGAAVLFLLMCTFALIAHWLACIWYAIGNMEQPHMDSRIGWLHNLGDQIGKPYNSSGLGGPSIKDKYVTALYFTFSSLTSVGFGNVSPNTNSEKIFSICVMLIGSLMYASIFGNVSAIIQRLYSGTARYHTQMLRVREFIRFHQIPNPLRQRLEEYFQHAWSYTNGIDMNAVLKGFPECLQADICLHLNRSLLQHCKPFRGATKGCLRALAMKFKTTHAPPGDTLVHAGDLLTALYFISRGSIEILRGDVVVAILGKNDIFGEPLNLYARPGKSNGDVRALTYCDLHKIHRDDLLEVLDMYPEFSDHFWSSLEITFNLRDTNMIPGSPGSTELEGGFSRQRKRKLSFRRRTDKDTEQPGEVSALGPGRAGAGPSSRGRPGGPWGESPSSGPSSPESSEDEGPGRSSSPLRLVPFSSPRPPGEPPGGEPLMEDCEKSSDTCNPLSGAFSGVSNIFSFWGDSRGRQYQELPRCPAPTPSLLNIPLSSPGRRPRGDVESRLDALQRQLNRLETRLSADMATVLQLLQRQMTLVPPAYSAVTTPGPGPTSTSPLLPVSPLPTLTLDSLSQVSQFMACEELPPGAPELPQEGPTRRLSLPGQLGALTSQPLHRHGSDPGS

Compared with `CC(C)(C)NC(=O)/C(=C\C=C\c1ccccc1)NC(=O)c1ccc([N+](=O)[O-])cc1`, `Cc1ccc(C(=O)NC(=S)NNC(=O)c2ccccc2[N+](=O)[O-])cc1` is lower in “hERG current change (%, negative = inhibition) at 1uM” value: 11.2% for the first, 10.7% for the second.

Going from `CCn1c(NCc2cc(OC)c(OC)c(OC)c2)nc2ccccc21.Cl` to `COc1ccc(C(=O)OCC(=O)c2cc(OC)ccc2OC)c(OC)c1`, the “hERG current change (%, negative = inhibition) at 1uM” value falls from 14.2% to 13.3%.

Going from `COC(=O)c1c(NC(C)=O)sc(C(=O)Nc2ccccc2OC)c1C` to `COc1ccccc1NC(=O)CCSc1nc(C)cs1`, the “hERG current change (%, negative = inhibition) at 1uM” value rises from 15.3% to 17.9%.

First: CN(CCCC(=O)NC1CC(C)(C)NC(C)(C)C1)S(=O)(=O)c1ccc([N+](=O)[O-])cc1
Second: CCCCC(=O)NS(=O)(=O)c1ccc(NS(C)(=O)=O)cc1
The “hERG current change (%, negative = inhibition) at 1uM” value of the first is higher: 9.24% for the first, 6.85% for the second.

Going from `CC(C)(C)c1ccc(C(=O)N2CCCC2c2cccs2)cc1` (stereo not drawn) to `O=C(c1cncs1)N1CCCC(CNS(=O)(=O)c2cccs2)C1` (stereo not drawn), the “hERG current change (%, negative = inhibition) at 1uM” value falls from 22.2% to 0.876%.

First: CN(C)c1cccc(C(=O)N/C=C/n2cnc3cc(C(F)(F)F)ccc32)c1
Second: O=C(Nc1ccc(Cl)cn1)c1cccc(F)c1
The “hERG current change (%, negative = inhibition) at 1uM” value of the first is higher: 16.1% for the first, 3.54% for the second.

First: CN(C)CCCN(C(=O)c1ccc(C(=O)c2ccccc2)cc1)c1nc2c(F)cccc2s1
Second: Cc1occc1C(=O)Nc1cccc(C(=O)NCc2ccccc2)c1
The “hERG current change (%, negative = inhibition) at 1uM” value of the first is higher: -1.61% for the first, -8.43% for the second.

Going from `O=C(CNC(=O)c1ccc(S(=O)(=O)N2CCCC2)cc1)N/N=C/c1c(Cl)cccc1Cl` to `O=C(COC(=O)c1cccc(S(=O)(=O)N2CCOCC2)c1)Nc1ncc(C(F)(F)F)cc1Cl`, the “hERG current change (%, negative = inhibition) at 1uM” value falls from 6.4% to -12%.

Going from `Cc1c(CCC(=O)O)c(=O)oc2c(C)c(OCc3ccccc3Cl)ccc12` to `Cc1ccc(NC(=O)C(=O)NCCc2c[nH]c3ccccc23)cc1C`, the “hERG current change (%, negative = inhibition) at 1uM” value falls from 15.8% to 8.54%.

Compared with `COc1ccc(NC(=O)c2ccc(S(=O)(=O)N3CCOCC3)o2)cc1`, `CC(C(=O)Nc1ccc(S(=O)(=O)N2CCOCC2)cc1)N1CCN(c2ccccn2)CC1` (stereo not drawn) is lower in “hERG current change (%, negative = inhibition) at 1uM” value: 11% for the first, 8.48% for the second.

First: NS(=O)(=O)c1ccc(CCNC(=O)CSc2nc3ccsc3c(=O)n2CCCCC(=O)O)cc1
Second: COC(=O)CSc1nc2sccc2c(=O)n1-c1ccccc1
The “hERG current change (%, negative = inhibition) at 1uM” value of the first is higher: 20.5% for the first, 5.57% for the second.

First: COc1cc(/C=N/NC(=O)c2ccc(-n3cccc3)cc2)ccc1O
Second: O=C(N/N=C/c1cccnc1)c1cc(Br)ccc1O
The “hERG current change (%, negative = inhibition) at 1uM” value of the first is lower: 7.52% for the first, 19% for the second.

Going from `Cc1cc2c3c(c1)C(C)CC(C)(C)N3C(=O)C2=O` (stereo not drawn) to `CC1=NC(Nc2nc(C)c3ccccc3n2)=NC(C)(C)C1`, the “hERG current change (%, negative = inhibition) at 1uM” value falls from 3.89% to -19.7%.

First: COc1ccc(/C(N)=N/OC(=O)Cc2ccc(C)cc2)cc1OC
Second: COCCNC(=O)C1CCC(=O)N(c2ccc(OC)cc2)C1c1ccc(OC)c(OC)c1 (stereo not drawn)
The “hERG current change (%, negative = inhibition) at 1uM” value of the first is lower: 3.15% for the first, 7.35% for the second.

Going from `COc1ccc(C(O)Cn2cc([N+](=O)[O-])nc2C)cc1` (stereo not drawn) to `COc1ccccc1OCCn1cc(C=O)c2ccccc21`, the “hERG current change (%, negative = inhibition) at 1uM” value falls from 12.4% to 12.3%.

Compared with `COc1cccc(CNC(=O)CNC(=O)c2cccs2)c1`, `COc1cccc(CNC(=O)COC(=O)C2CCN(c3ccc(C(F)(F)F)cn3)CC2)c1` is lower in “hERG current change (%, negative = inhibition) at 1uM” value: 18.1% for the first, -4.59% for the second.

Compared with `Cc1ccc(NC(=O)Cn2nc(C)c3ccccc3c2=O)cc1`, `Cc1cc(NC(=O)Cn2nc(-c3cccs3)ccc2=O)cc(C)c1Br` is higher in “hERG current change (%, negative = inhibition) at 1uM” value: 2.11% for the first, 17.6% for the second.

Going from `OC(CNCCNc1ncccc1C(F)(F)F)COc1ccc(F)cc1` (stereo not drawn) to `O=C(Oc1ccc(Br)cc1)C1CC(=O)N(c2ccc(F)cc2)C1` (stereo not drawn), the “hERG current change (%, negative = inhibition) at 1uM” value rises from -25.6% to 12.7%.

Going from `Cc1ccc(NC(=O)CSc2nc(=O)n(CCCN3CCOCC3)c3c2CCCC3)cc1` to `COc1ccc(CCNC(=O)C(=O)NCCCN2CCOCC2)cc1`, the “hERG current change (%, negative = inhibition) at 1uM” value rises from -7.38% to 14%.

First: Cc1ccnc(Nc2nc3ccccc3s2)n1
Second: CCCN1CCN(C(=O)c2ccccc2-c2nc3ccccc3s2)CC1
The “hERG current change (%, negative = inhibition) at 1uM” value of the first is higher: 11% for the first, -6.92% for the second.

Going from `O=C(CN1CCCCC1)Nc1ccc(F)c(Cl)c1` to `O=C(Nc1ccc(-c2cccc(F)c2)cc1)C1CCCN(Cc2ccccn2)C1` (stereo not drawn), the “hERG current change (%, negative = inhibition) at 1uM” value rises from 1.07% to 3.56%.

Compared with `CS(=O)(=O)c1cccc(NC(=O)C2CCCN2S(=O)(=O)c2ccc(F)cc2)c1` (stereo not drawn), `Cc1cc(=O)n2nc(N3CCCC3C(=O)Nc3cccc(F)c3)sc2n1` (stereo not drawn) is lower in “hERG current change (%, negative = inhibition) at 1uM” value: 13.4% for the first, 2.56% for the second.

Going from `COc1ccc(C2CC(c3ccccc3)=NN2S(=O)(=O)c2ccccc2)c(OC)c1` (stereo not drawn) to `O=C(O)c1cccc(Cn2c(Cl)c(/C=N/Nc3ccccc3)sc2=O)c1`, the “hERG current change (%, negative = inhibition) at 1uM” value rises from 13% to 20.2%.

First: CC(=O)N/C(=N\OCc1ccc(Br)cc1)c1nonc1NC(C)=O
Second: CCOCC(=O)Nc1cc(C(=O)Nc2cc(C)cc(C)c2)ccc1Cl
The “hERG current change (%, negative = inhibition) at 1uM” value of the first is lower: 12.6% for the first, 14.3% for the second.

First: CCCn1c(N)c(C(=O)CSc2nnnn2-c2ccc(O)cc2)c(=O)n(C)c1=O
Second: CC1CCN(Cc2nc3c(c(=O)n(C)c(=O)n3C)n2CCCc2ccccc2)CC1
The “hERG current change (%, negative = inhibition) at 1uM” value of the first is lower: 7.35% for the first, 8.43% for the second.

Going from `O=C(CCc1ccccc1O)NC1CCCc2ccccc21` (stereo not drawn) to `O=C(C[n+]1cc(-c2ccccc2)n2c1CCC2)Nc1nc(-c2ccc(F)cc2)cs1.[Cl-]`, the “hERG current change (%, negative = inhibition) at 1uM” value rises from -3.48% to 4.85%.

Compared with `Cc1ccc(-c2ccc(S(=O)(=O)NCC3CCCO3)cc2)cc1` (stereo not drawn), `CCc1ccc(S(=O)(=O)Nc2ccc(-c3ccc4nnc(C)n4n3)cc2)s1` is lower in “hERG current change (%, negative = inhibition) at 1uM” value: 16.2% for the first, 10.5% for the second.

Going from `CS(=O)(=O)N1CCc2cc(C(=O)N3CCN(c4ccc(F)cc4)CC3)ccc21` to `O=C(Nc1ccccc1C(=O)N1CCN(c2cccc(Cl)c2)CC1)C1=CSCCO1`, the “hERG current change (%, negative = inhibition) at 1uM” value rises from 9.26% to 12.4%.

Going from `Nc1c(C(=O)Nc2ccc3c(c2)OCCO3)nnn1Cc1ccc(F)cc1` to `Cc1ccc(N2CC(C(=O)NCc3ccc4c(c3)OCO4)CC2=O)cc1C` (stereo not drawn), the “hERG current change (%, negative = inhibition) at 1uM” value falls from 8.31% to 6.91%.

Going from `Cc1cccc(C)c1NC(=S)N/N=C1\CC2CC=CC12` (stereo not drawn) to `COc1cccc2cc(C(C)N(CCCN3CCOCC3)C(=S)Nc3cc(C)ccc3C)oc12` (stereo not drawn), the “hERG current change (%, negative = inhibition) at 1uM” value rises from 2.82% to 13%.

Compared with `O=C1NCCSC1c1ccccc1` (stereo not drawn), `N#Cc1c(C(F)(F)F)cc(-c2ccccc2Cl)[nH]c1=O` is lower in “hERG current change (%, negative = inhibition) at 1uM” value: 15.7% for the first, -2.5% for the second.

First: CC(=O)c1ccn(S(=O)(=O)c2ccc(Cl)cc2)c1
Second: O=C1c2cccnc2C(=O)N1Cc1ccc(S(=O)(=O)NCc2ccco2)cc1
The “hERG current change (%, negative = inhibition) at 1uM” value of the first is lower: 12.6% for the first, 12.9% for the second.

Going from `CC(=O)c1c(C)[nH]c(C(=O)NC(C)c2ccccc2)c1C` (stereo not drawn) to `CC(=O)C(Sc1nc(N(C)C)nc(N(C)C)n1)C(=O)Nc1ccccc1` (stereo not drawn), the “hERG current change (%, negative = inhibition) at 1uM” value rises from 7.56% to 12.8%.

Going from `CCc1ccc(CN2CCC(Oc3ccc(C(=O)NCc4ccccn4)cc3)CC2)o1` to `COc1ccc(C(=O)Nc2ccc(-c3n[nH]c(=S)o3)cc2)cc1`, the “hERG current change (%, negative = inhibition) at 1uM” value rises from 12.7% to 16.9%.

Going from `C/C(CC1(O)/C(=N/O)CCc2nonc21)=N\O` (stereo not drawn) to `CC(=O)c1ccc(Nc2cnn(C34CC5CC(CC(CC(=O)O)(C5)C3)C4)c(=O)c2Cl)cc1`, the “hERG current change (%, negative = inhibition) at 1uM” value rises from 13.3% to 15.3%.

Going from `O=S(=O)(c1ccc(Cl)nc1)N1CCN(Cc2ccc3c(c2)OCO3)CC1` to `O=C(Nc1ccc2c(c1)OCO2)N1CCN(c2ncc(C(F)(F)F)cc2Cl)CC1`, the “hERG current change (%, negative = inhibition) at 1uM” value falls from 15% to 7.69%.

Compared with `Cc1noc(C)c1CSc1nnc2scc(-c3ccccc3)n12`, `Cc1cc(C)nc(SCc2nnc(SCC(=O)Nc3cc(C(F)(F)F)ccc3Cl)o2)n1` is higher in “hERG current change (%, negative = inhibition) at 1uM” value: -6.47% for the first, -0.0846% for the second.

Compared with `COc1ccnc(N=CNOCc2ccc(F)cc2Cl)c1C#N`, `COc1cc(CNc2ccc3[nH]c(=O)[nH]c3c2)cc(Cl)c1OCC(=O)NC(C)(C)C` is lower in “hERG current change (%, negative = inhibition) at 1uM” value: 11.8% for the first, 9.24% for the second.

Going from `c1ccc(C(c2ccccc2)c2noc(CN3CCN(CC4CC4)CC3)n2)cc1` to `CCOC(=O)c1ccc(S(=O)(=O)N2CCN(CC(O)COc3ccc(C#N)cc3)CC2)cc1.O=C(O)C(=O)O` (stereo not drawn), the “hERG current change (%, negative = inhibition) at 1uM” value rises from -27.1% to -10.8%.

First: O=C(O)c1cc2nc(C3CC3)cc(C(F)(F)F)n2n1
Second: Cc1[nH][nH]c(=O)c1C=Nc1ccc(C(F)(F)F)cc1
The “hERG current change (%, negative = inhibition) at 1uM” value of the first is lower: 12% for the first, 15% for the second.

First: Cc1cccc(C(=O)N[C@H](C(=O)Nc2ccc(S(=O)(=O)NC3=NCCCCC3)cc2)C(C)C)c1
Second: NC(=O)c1ccccc1NC(=O)Nc1cccc(Cl)c1Cl
The “hERG current change (%, negative = inhibition) at 1uM” value of the first is lower: 10.7% for the first, 11.4% for the second.

First: Cc1cc(-c2ccc(/C=N/n3cnnc3)o2)ccc1Cl
Second: O=C(c1ccc2c3n(nc2c1)-c1ccc(Cl)cc1CO3)N1CCOCC1
The “hERG current change (%, negative = inhibition) at 1uM” value of the first is higher: 9.22% for the first, 6.59% for the second.

First: CC(=O)c1cnn(-c2ccc(Cl)c(Cl)c2Cl)c1C
Second: Cc1ccc(C2C(C#N)=C(N)Oc3n[nH]c(C)c32)cc1 (stereo not drawn)
The “hERG current change (%, negative = inhibition) at 1uM” value of the first is lower: 6.24% for the first, 9.97% for the second.

In the case of `COc1ccc(-c2nnc(SCC(=O)N3CCOCC3)n2C)cc1OC`, the “hERG current change (%, negative = inhibition) at 1uM” value is reported as 2.91%.
